Data published in publication PMC9911399, “Two distinct binding modes provide the RNA-binding protein RbFox with extraordinary sequence specificity”.
Changes are numbered by the printed parent chain; changes in the protein carry UniProt numbers. This is one part of the list.

T1: RBFOX1 RRM RbFoxmut (Fox-RRM*) (Homo sapiens, UniProt Q9NWB1 109-208, R118D;E147R;N151S;E152T)
T1 sequence: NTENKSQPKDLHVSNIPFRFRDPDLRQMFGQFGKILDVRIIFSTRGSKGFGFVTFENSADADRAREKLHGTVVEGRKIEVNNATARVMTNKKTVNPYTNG

B1: AAUCUCC (DNA:RNA)
RNA: GGGAGACCGGAAUUCAGAUUGUCCAAUCUCCUUAAAUCCCGUCGUAGCCACCA
DNA 1: CAATCTGAATTCCGGTCTCCC
DNA 2: TGGTGGCTACGACGGGATT
B2: GCUGUCU (DNA:RNA)
RNA: B1 RNA with A25G, A26C, C28G, C31U
DNA 1: CAATCTGAATTCCGGTCTCCC
DNA 2: TGGTGGCTACGACGGGATT
B3: GGGAGCC (DNA:RNA)
RNA: B1 RNA with A25G, A26G, U27G, C28A, U29G
DNA 1: CAATCTGAATTCCGGTCTCCC
DNA 2: TGGTGGCTACGACGGGATT
B4: GGCGCGG (DNA:RNA)
RNA: GGGAGACCGGAAUUCAGAUUGUCCGGCGCGGUUAAAUCCCGUCGUAGCCACCA
DNA 1: CAATCTGAATTCCGGTCTCCC
DNA 2: TGGTGGCTACGACGGGATT
B5: GCAACCG (DNA:RNA)
RNA: B4 RNA with G26C, C27A, G28A, G30C
DNA 1: CAATCTGAATTCCGGTCTCCC
DNA 2: TGGTGGCTACGACGGGATT
B6: GGAUACU (DNA:RNA)
RNA: B4 RNA with C27A, G28U, C29A, G30C, G31U
DNA 1: CAATCTGAATTCCGGTCTCCC
DNA 2: TGGTGGCTACGACGGGATT
B7: GGGCUGC (DNA:RNA)
RNA: B1 RNA with A25G, A26G, U27G, C30G
DNA 1: CAATCTGAATTCCGGTCTCCC
DNA 2: TGGTGGCTACGACGGGATT
B8: AGAUCGG (DNA:RNA)
RNA: B4 RNA with G25A, C27A, G28U
DNA 1: CAATCTGAATTCCGGTCTCCC
DNA 2: TGGTGGCTACGACGGGATT
B9: CCUAAUG (DNA:RNA)
RNA: B1 RNA with A25C, A26C, C28A, U29A, C30U, C31G
DNA 1: CAATCTGAATTCCGGTCTCCC
DNA 2: TGGTGGCTACGACGGGATT
B10: CCGGCUA (DNA:RNA)
RNA: B4 RNA with G25C, G26C, C27G, G30U, G31A
DNA 1: CAATCTGAATTCCGGTCTCCC
DNA 2: TGGTGGCTACGACGGGATT
B11: UAGGUUC (DNA:RNA)
RNA: B1 RNA with A25U, U27G, C28G, C30U
DNA 1: CAATCTGAATTCCGGTCTCCC
DNA 2: TGGTGGCTACGACGGGATT
B12: CGGAGCG (DNA:RNA)
RNA: B4 RNA with G25C, C27G, G28A, C29G, G30C
DNA 1: CAATCTGAATTCCGGTCTCCC
DNA 2: TGGTGGCTACGACGGGATT
B13: GUGAUAA (DNA:RNA)
RNA: B1 RNA with A25G, A26U, U27G, C28A, C30A, C31A
DNA 1: CAATCTGAATTCCGGTCTCCC
DNA 2: TGGTGGCTACGACGGGATT
B14: UAAGUGU (DNA:RNA)
RNA: B1 RNA with A25U, U27A, C28G, C30G, C31U
DNA 1: CAATCTGAATTCCGGTCTCCC
DNA 2: TGGTGGCTACGACGGGATT
B15: CUGUAUU (DNA:RNA)
RNA: GGGAGACCGGAAUUCAGAUUGUCCCUGUAUUUUAAAUCCCGUCGUAGCCACCA
DNA 1: CAATCTGAATTCCGGTCTCCC
DNA 2: TGGTGGCTACGACGGGATT
B16: UUAAGAA (DNA:RNA)
RNA: B15 RNA with C25U, G27A, U28A, A29G, U30A, U31A
DNA 1: CAATCTGAATTCCGGTCTCCC
DNA 2: TGGTGGCTACGACGGGATT
B17: UUGCGUA (DNA:RNA)
RNA: B15 RNA with C25U, U28C, A29G, U31A
DNA 1: CAATCTGAATTCCGGTCTCCC
DNA 2: TGGTGGCTACGACGGGATT
B18: ACAAGAG (DNA:RNA)
RNA: B1 RNA with A26C, U27A, C28A, U29G, C30A, C31G
DNA 1: CAATCTGAATTCCGGTCTCCC
DNA 2: TGGTGGCTACGACGGGATT
B19: AGUGAGG (DNA:RNA)
RNA: B4 RNA with G25A, C27U, C29A
DNA 1: CAATCTGAATTCCGGTCTCCC
DNA 2: TGGTGGCTACGACGGGATT
B20: GUGGUGA (DNA:RNA)
RNA: B4 RNA with G26U, C27G, C29U, G31A
DNA 1: CAATCTGAATTCCGGTCTCCC
DNA 2: TGGTGGCTACGACGGGATT

biological target: T1, RBFOX1 RRM RbFoxmut (Fox-RRM*); test: EMSA; HiTS-Eq, 1 nM pool, 10 min; buffer printed only for the single-RNA assays: 10 mM Tris pH 7.5, 150 mM NaCl, 3.4 mM EDTA, 0.001% NP-40, 30 C; conditions: tags: His6 N-terminal (pET28a); label: 5' 32P
How it was run: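 These values rest on relative association constants, computed from read-count changes of each RNA species versus the control reaction and normalised to the cognate motif. Reads came from free RNA recovered by 8% native PAGE after purified RbFox RRM (wild type or mutant) at increasing concentrations was equilibrated for 10 min in 50 µL with 1 nM of a 5′-radiolabelled pool with 7 randomized nucleotides and DNA-annealed flanks.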

Row | Binder | binding signal
1 | B1 | 0.049 KA relative to UGCAUGU
2 | B2 | 0.0672 KA relative to UGCAUGU
3 | B3 | 0.14 KA relative to UGCAUGU
4 | B4 | 0.0869 KA relative to UGCAUGU
5 | B5 | 0.0732 KA relative to UGCAUGU
6 | B6 | 0.0726 KA relative to UGCAUGU
7 | B7 | 0.126 KA relative to UGCAUGU
8 | B8 | 0.124 KA relative to UGCAUGU
9 | B9 | 0.124 KA relative to UGCAUGU
10 | B10 | 0.0822 KA relative to UGCAUGU
11 | B11 | 0.123 KA relative to UGCAUGU
12 | B12 | 0.166 KA relative to UGCAUGU
13 | B13 | 0.094 KA relative to UGCAUGU
14 | B14 | 0.128 KA relative to UGCAUGU
15 | B15 | 0.124 KA relative to UGCAUGU
16 | B16 | 0.121 KA relative to UGCAUGU
17 | B17 | 0.211 KA relative to UGCAUGU
18 | B18 | 0.105 KA relative to UGCAUGU
19 | B19 | 0.111 KA relative to UGCAUGU
20 | B20 | 0.129 KA relative to UGCAUGU
